In the supplement of paper PMC3334620:
In all, about 33,000 sequences were measured (“E-score (-0.5 to 0.5)”: median about -0.013, highest 2% from about 0.3 on). The list shows a part of the results.

Each sequence was assayed against T1, Msn1 (UniProt P22148) (assay: PBM E-score (8-mer binding enrichment) (E-score (-0.5 to 0.5)); higher = stronger / more preferred TF binding; most listed sequences are background and not binding sites). Conditions: protein concentration: 200 nM; construct: GST-full length.
T1 sequence: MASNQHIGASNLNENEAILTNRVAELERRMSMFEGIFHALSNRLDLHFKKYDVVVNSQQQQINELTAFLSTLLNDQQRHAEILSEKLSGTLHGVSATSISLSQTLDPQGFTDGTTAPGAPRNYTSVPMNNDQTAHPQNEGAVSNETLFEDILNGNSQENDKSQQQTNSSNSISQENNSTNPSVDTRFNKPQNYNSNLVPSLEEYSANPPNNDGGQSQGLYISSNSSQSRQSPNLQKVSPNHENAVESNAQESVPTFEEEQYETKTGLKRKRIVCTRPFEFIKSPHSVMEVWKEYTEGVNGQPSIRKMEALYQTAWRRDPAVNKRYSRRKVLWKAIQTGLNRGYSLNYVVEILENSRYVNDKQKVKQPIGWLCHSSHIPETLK
Method in brief: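 Detection of bound protein used fluorescent anti-GST, with scans normalised by masliner. The proteins were GST-tagged yeast transcription factors applied at about 100-200 nM to universal all-10-mer Agilent arrays made double-stranded by primer extension. Each ungapped eight-base word, pooled with its reverse complement, was scored with an E-score from the Universal PBM Analysis Suite.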

| Sequence | PBM E-score |
| --- | --- |
| GCTTGAGA | -0.138 |
| AGTACGGC | -0.0924 |
| AGACTGGG | -0.0326 |
| ACACCGGG | -0.155 |
| CTATGGAG | 0.00025 |
| TATTCTGA | -0.0984 |
| AAGTTTAC | -0.00938 |
| GATGACCC | -0.0627 |
| ACTCGAAC | 0.0435 |
| AGACTGCG | -0.178 |
| GAATTGCA | 0.0426 |
| CCAGCTCC | -0.24 |
| ATACCTAC | 0.0111 |
| AGTATGTA | -0.0186 |
| ATCAAGTA | 0.173 |
| TAGTAAAA | -0.00108 |
| CCATACGA | -0.00556 |
| ACAATCTG | 0.196 |
| AAGCAGTC | -0.0549 |
| TATCCTAA | 0.0366 |
| ACACCGGC | 0.0187 |
| CGACTGTA | -0.147 |
| CTTCACTA | -0.0698 |
| TAGTGCCA | -0.101 |
| ACGCTAGA | -0.284 |

| Sequence | PBM E-score |
| --- | --- |
| ACCGAGGA | 0.0151 |
| GGGAAAGA | -0.168 |
| GGGTGCAA | -0.188 |
| TAAAGATA | 0.0041 |
| AAAGACTT | 0.0779 |
| CTGAGATA | 0.166 |
| ACTGAGCT | -0.0939 |
| GTCAATGA | -0.0907 |
| AAAATGCG | 0.0361 |
| CAAGGCGC | -0.0453 |
| ACTAGACG | 0.112 |
| CACAAATG | 0.0377 |
| CAACGGAA | 0.193 |
| GCGGACCC | -0.148 |
| GTACGGCA | -0.01 |
| ATATGGGG | -0.228 |
| AAGAAGTA | 0.0325 |
| AAGATACA | 0.171 |
| GGTCTGTA | -0.109 |
| ATGGGGGC | -0.381 |
| CAGTCCCC | -0.328 |
| CACCAAGC | -0.0817 |
| AGAGAGCG | -0.271 |
| GTCACGGA | 0.308 |
| CAGATTGG | -0.266 |

| Sequence | PBM E-score |
| --- | --- |
| CCAGTGAC | -0.0989 |
| ACCGGCAT | 0.0814 |
| ATATGAAC | 0.0766 |
| ACGTTTTC | 0.0216 |
| AAGAATTC | -0.0295 |
| GTCTGAAC | 0.0312 |
| AAGGCGAA | -0.153 |
| ATTAAAAA | 0.327 |
| AGGCAACC | -0.186 |
| GTCCGGCA | 0.19 |
| AAAGGCGC | -0.00349 |
| TCAAGTCA | 0.00434 |
| TCGTGAGA | -0.127 |
| AACCAGGC | 0.0236 |
| CTCGCACC | 0.00375 |
| GGGTATGA | 0.0877 |
| CCAAAAGA | 0.146 |
| GTTAGCAA | 0.148 |
| CACCGACG | 0.0473 |
| AGGCGAGC | -0.0588 |
| CCCATAAG | 0.00475 |
| AATGGCTA | -0.0496 |
| ACCCTAGG | -0.155 |
| AGCCTCCT | -0.183 |
| GGCGAACA | 0.0598 |

| Sequence | PBM E-score |
| --- | --- |
| CAACGCAA | 0.11 |
| CGTCGTCC | -0.0457 |
| CCCGGCGG | -0.218 |
| GCTAACAC | -0.0214 |
| ACATGGGG | -0.0754 |
| ATATCCAC | 0.0731 |
| AAATGAGC | 0.0159 |
| ATTCGGCG | 0.161 |
| AGGCGTAT | 0.00582 |
| CGTACCTC | -0.107 |
| GAACAATC | 0.022 |
| AAATCAGC | 0.126 |
| GTTGAATA | 0.0705 |
| AGTGATGC | -0.0793 |
| CATGCAGG | -0.2 |
| CTTCGCCC | -0.219 |
| ACTAATTA | 0.21 |
| GCCGATCA | -0.0192 |
| GATTCGAA | 0.00623 |
| ACCGGGCT | -0.146 |
| AGATACAC | 0.0785 |
| CATCACAC | -0.0894 |
| AGATTGCT | -0.00224 |
| CACCATCC | -0.249 |
| TGGACCAA | 0.0483 |

| Sequence | PBM E-score |
| --- | --- |
| ATAGACAC | 0.245 |
| CCAACCGG | -0.104 |
| AGTTCCTC | -0.0834 |
| ATTTCGTA | 0.0958 |
| AACGTTCC | -0.184 |
| GGAGTTTA | 0.0282 |
| CTTGAGAA | -0.0327 |
| GCTGGGTA | -0.24 |
| AACAGTAT | 0.0551 |
| CCATTGAG | 0.0358 |
| ACTTATGG | -0.0838 |
| ATACCAAA | 0.149 |
| CCGATTTC | -0.0797 |
| AACTTCTC | 0.133 |
| CCCCGCCC | -0.015 |
| ACAGATAG | 0.116 |
| ATGCACTC | -0.179 |
| TACTATGA | 0.145 |
| AGTCGGAC | 0.3 |
| GTTGGACA | 0.437 |
| ATAGAAAG | -0.103 |
| ATACCGCG | 0.0616 |
| ATTTATTG | 0.128 |
| GAGCGCTC | -0.219 |
| ACTTATAC | 0.0919 |

| Sequence | PBM E-score |
| --- | --- |
| AAGTAAGT | 0.0218 |
| AACGGCAG | -0.0524 |
| GATCTCGC | 0.0143 |
| CAATTCTC | 0.069 |
| ATTGTGTC | 0.314 |
| CTGCCGCC | -0.265 |
| GTTGCCTA | -0.138 |
| GACCATCA | -0.0992 |
| CAAGTTGA | -0.135 |
| AAAGTTAA | 0.182 |
| CGCGGGAC | 0.129 |
| CATGGCAC | -0.179 |
| CGTATCGA | -0.0032 |
| CGTGGGCA | -0.0861 |
| CCACTCGA | 0.0135 |
| AACATTGA | 0.117 |
| CGTGAGAA | -0.116 |
| CACTTCCG | -0.0321 |
| GTGCGACA | 0.0786 |
| AGGAATGA | -0.0321 |
| ACGCAAGT | 0.0394 |
| AGTTAGTC | 0.0804 |
| AATTGCGC | 0.106 |
| CATGGTAA | 0.055 |
| CTTTCCAC | -0.0997 |

| Sequence | PBM E-score |
| --- | --- |
| ACGTATAC | -0.115 |
| ACTTCCCG | 0.00833 |
| AGTTAGGA | 0.171 |
| GGCTAGTA | 0.102 |
| ACCCTCGT | -0.241 |
| CTACCGAA | -0.0333 |
| CTCCAAGA | 0.0444 |
| CTGGAGTC | -0.182 |
| CGCCTAAC | 0.0368 |
| CAACAATA | 0.163 |
| ACCCCCCT | -0.325 |
| TACTGTCA | 0.0239 |
| AGGATTCA | -0.0937 |
| ATACTCCG | 0.193 |
| AACGAGTG | -0.0417 |
| TAACAGGA | 0.167 |
| CGAAATGC | 0.209 |
| GCCGATAC | 0.0549 |
| CACGCATC | 0.0651 |
| GCTAGTGA | -0.00743 |
| CGGCGCAG | -0.0403 |
| AGTACCAC | 0.0226 |
